Data: publication PMC6919601, “Identification of Plasmodium dipeptidyl aminopeptidase allosteric inhibitors by high throughput screening” (PLoS ONE, 2019)
About 230 (0.21%) of roughly 110,000 compounds showed an effect of 50% or more. The list shows a part of the results.

Each compound was assayed against DPAP1 (Plasmodium falciparum, UniProt Q8IIJ9) (assay: primary screen, percent inhibition; read by cleavage of a fluorogenic dipeptide substrate; higher = more effect of the substance).
Design: species or system P. falciparum D10 trophozoite lysates; single well
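Further: 30 min substrate incubation versus DMSO and 10 µM JCP410 controls.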

Chain of DPAP1 (Q8IIJ9 whole entry, looked up): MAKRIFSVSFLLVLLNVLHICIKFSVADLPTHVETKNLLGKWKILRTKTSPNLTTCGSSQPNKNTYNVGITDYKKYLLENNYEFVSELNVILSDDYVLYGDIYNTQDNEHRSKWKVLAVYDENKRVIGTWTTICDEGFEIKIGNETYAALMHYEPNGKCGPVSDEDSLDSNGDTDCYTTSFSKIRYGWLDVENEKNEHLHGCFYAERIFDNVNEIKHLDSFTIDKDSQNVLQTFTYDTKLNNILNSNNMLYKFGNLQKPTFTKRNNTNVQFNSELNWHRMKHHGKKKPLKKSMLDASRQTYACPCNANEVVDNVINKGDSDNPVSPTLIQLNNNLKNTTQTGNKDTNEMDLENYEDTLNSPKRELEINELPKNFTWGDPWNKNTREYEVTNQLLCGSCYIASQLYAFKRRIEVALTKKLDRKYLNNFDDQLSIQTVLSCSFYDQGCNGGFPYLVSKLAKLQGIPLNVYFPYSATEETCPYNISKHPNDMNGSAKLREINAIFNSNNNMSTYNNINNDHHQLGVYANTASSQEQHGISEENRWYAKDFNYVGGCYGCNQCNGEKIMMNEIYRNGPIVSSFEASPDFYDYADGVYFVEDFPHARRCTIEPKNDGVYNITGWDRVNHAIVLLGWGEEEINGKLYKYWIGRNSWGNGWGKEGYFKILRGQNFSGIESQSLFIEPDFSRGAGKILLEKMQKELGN

Row | SMILES | % Inhibition @ 10 uM
1 | Cn1c(N2CCC(Cc3ccccc3)CC2)nc2c1c(=O)n(Cc1ccc(Cl)cc1)c(=O)n2C | 4.74%
2 | CCCc1cc(O)nc(/N=C(\N)Nc2ccc3c(c2)OCCO3)n1 | -1.38%
3 | Cc1ccc(NCN2C(=O)C3C4CCC(C4)C3C2=O)cc1Cl (stereo not shown) | 0.536%
4 | CCCN1CCN(CC2=C(C(=O)OCC)C(c3cccs3)NC(=O)N2)CC1 (stereo not shown) | -4.63%
5 | CC(C)c1ccc(/C=C/C(=O)NCc2ccccc2)cc1 | 5.29%
6 | COc1cccc(-n2nnc(S(=O)(=O)c3ccc(Cl)cc3)c2C)c1 | -3.37%
7 | CC1CC(C)CN(CCCNC(=O)c2cc3c(O)nc4ccccc4c3s2)C1 (stereo not shown) | -2.29%
8 | Cc1cc(C)n(S(=O)(=O)c2c(C)c(C)cc(C)c2C)n1 | -0.902%
9 | CCOc1ccccc1C1CC(=O)NC(SCC(N)=O)=C1C#N (stereo not shown) | -2.89%
10 | Cn1c(O)c(/C=N/c2cccc(Cl)c2)c2ccccc21 | 0.472%
11 | CCOC(=O)C1=C(c2ccccc2)NC(=O)NC1c1ccc(CC)cc1 (stereo not shown) | 0.0538%
12 | CCc1ccc(NC(=O)c2ccc(OC)cc2)cc1 | -5.32%
13 | Nc1c(C(=O)Nc2ccc(Cl)c(C(=O)O)c2)sc2nc3c(cc12)CCCC3 | 6.37%
14 | CC(c1ccccc1)N1C(=O)NC(=O)/C(=C/c2ccc(SC3CCCCC3)o2)C1=O (stereo not shown) | 0.458%
15 | C=CCO/C(O)=C1\C(C)=Nc2nnnn2C1c1ccc(Br)cc1 (stereo not shown) | -5.19%
16 | COc1cc(C(=O)O)ccc1OCCC(C)C | -3.01%
17 | COc1ccc(S(=O)(=O)N(C)CC(=O)NCc2ccc(C)cc2)cc1 | -0.48%
18 | Cn1ncc2c(NCCCc3ccccc3)ncnc21 | 3.83%
19 | COc1cc(OC)c(OC)cc1CN1CCN(Cc2ccccc2Br)CC1 | -9.68%
20 | CCC1CCCCN1CCCNC(=O)c1ccc(CS(=O)(=O)c2ccc(Br)cc2)o1 (stereo not shown) | -1.28%
21 | CC(C)(C#Cc1ccc(Br)cc1)OC(=O)Nc1ccccc1 | 11.7%
22 | COc1cc(OC)cc(C2=N/C(=C\c3ccc(OC)c(OC)c3)C(=O)O2)c1 | -7.76%
23 | CCOC(=O)N1CCN(CC(O)COc2ccc(Cl)c(C)c2)CC1 (stereo not shown) | 0.291%
24 | COC(=O)c1cc2c(s1)CN(Cc1ccc(Cl)cc1)C2 | -2.14%
25 | CCN(CC)C(=O)C1CCCN(C2CCN(C)CC2)C1 (stereo not shown) | -1.81%
26 | O=C(Nc1ccc(Oc2ccc3ccccc3c2)cc1)c1ccco1 | 2.38%

Row | SMILES | % Inhibition @ 10 uM
27 | c1ccc2c(c1)nc1n2C2(N3CCOCC3)CCCCC2C1N1CCOCC1 (stereo not shown) | -2.82%
28 | CCCCCc1ccc(-c2ccc(/C=C/C(=O)NC(C)c3ccccc3)cc2)nc1 (stereo not shown) | 1.13%
29 | CC(C)CCNc1nc2ccccc2n2nnnc12 | 2.76%
30 | O=c1oc(-c2cccs2)nc2sc3c(c12)CCCC3 | -5.11%
31 | CCN(CC)C(=O)CSc1nc2c(C)c(C)ccc2[nH]1 | 0.907%
32 | COC(=O)C1=C(C)N(C)C(=O)/C1=C\c1ccccc1 | 3.43%
33 | CN1CCN(Cc2nc3c(c(=O)n(C)c(=O)n3C)n2Cc2c(F)cccc2Cl)CC1 | -6.06%
34 | Cc1cc(C)c(NC(=O)CN2CCN3CCCC3C2)c(C)c1 (stereo not shown) | 2.38%
35 | CC(Oc1ccc(F)cc1)C(=O)Nc1sc2c(c1C(N)=O)CCC2 (stereo not shown) | 2.44%
36 | Cn1c(C(=O)N2CCOCC2)cc2sccc21 | 0.291%
37 | CCCS(=O)(=O)n1nc(-c2ccc(C)cc2)cc1N | -5.76%
38 | O=C1CC(N2CCN(Cc3ccc4c(c3)OCO4)CC2)C(=O)N1c1ccc(Cl)c(Cl)c1 (stereo not shown) | -2.6%
39 | Cc1cc(C)c2c(n1)nn1c(C)c(CCC(=O)NCc3cccc(Cl)c3)c(C)nc21 | -8.02%
40 | COC(=O)c1cc(S(=O)(=O)/C=C/c2ccccc2)c(Cl)cc1Cl | 0.275%
41 | O=[N+]([O-])c1ccc(Sc2cccs2)c([N+](=O)[O-])c1 | 3.34%
42 | CCOC(=O)c1cc(O)nc2ccccc12 | 3.04%
43 | Cc1cc(Cl)ccc1OCC(=O)Nc1cccc(C#N)c1 | -7.25%
44 | CC(C)N1CN(c2nc3ccccc3s2)CN(c2nc3ccccc3s2)C1 | -3.53%
45 | O=C(/C=C/c1ccc2c(c1)OCO2)Nc1ccc(Cl)cc1 | -7.8%
46 | COc1ccc(CNc2nc3c(C)cc(C)cc3s2)cc1 | 0.627%
47 | O=C(NCc1ccc(Cl)cc1)c1ccc(CS(=O)(=O)c2cccc(C(F)(F)F)c2)o1 | -3.32%
48 | O=C(c1cccs1)N1CCN(c2ccc(Cl)cc2)CC1 | -5.14%
49 | CCN(CC)S(=O)(=O)c1cc(C(=O)Nc2ccc(C(=O)O)cc2)ccc1C | -7.32%
50 | Cc1cccc(C)c1NC(=O)CCC(=O)O | -0.216%
51 | N#Cc1c(-n2ncnc2-c2cccnc2)sc2c1CCCCC2 | 0.392%
52 | O=C1NC(=O)C(=Cc2ccc3c(c2)OCO3)C(=O)N1 | -0.902%

Row | SMILES | % Inhibition @ 10 uM
53 | c1ccc(C[n+]2cccc(-c3ccccc3)c2)cc1 | 6.27%
54 | CC(=O)NC12CC3CC(C1)C(=O)C(C3)C2 | -2.78%
55 | Cn1cccc1Cc1nnc(SCC(N)=O)n1-c1ccccc1 | 5.32%
56 | CC(=O)Nc1ccc(NC(C)=O)c2ccccc12 | 3.53%
57 | CN1CCCN(Cc2ccc([N+](=O)[O-])cc2)CC1 | -5.41%
58 | Cc1ccc(C/N=C(\N)Nc2nc(C)cc(C)n2)cc1 | 1.37%
59 | COc1cccc(-c2cc(C(F)(F)F)n3ncc(C(=O)NC4CCCC4)c3n2)c1 | 8.92%
60 | COCCN1C2=C(C(=O)CC(C)(C)C2)C(c2ccc(OC)c(C(=O)O)c2)C2=C1CC(C)(C)CC2=O | -1.63%
61 | Clc1ccc(OCCN2CCCCC2)c2ccccc12 | 1.57%
62 | Cc1ccc2oc(-c3cccc(NC(=O)CC(C)C)c3)nc2c1 | 2.45%
63 | Cc1ccc(-n2nc(C)c(/C=N/Cc3ccccc3)c2O)cc1C | 4.97%
64 | COc1ccc(-c2cc(C)no2)cc1S(=O)(=O)Nc1ccc(C)cn1 | 4.36%
65 | CN1CC(=O)N(C)c2ncn(C)c2C1=O | 0.0538%
66 | COc1ccc(NS(=O)(=O)c2ccc(NC(=O)COc3ccc(Br)cc3)cc2)cc1 | -10.2%
67 | Cc1cc(N2CCC(C(=O)N3CCN(C)CC3)CC2)n2nc(C)c(-c3ccc(Cl)cc3)c2n1 | -7.53%
68 | CC#CCCOc1nc(Cl)cn(-c2ccccc2)c1=O | -4%
69 | Cc1ccc(-c2nnc(SCC(=O)NC3CCCCC3)n2C)c(Cl)c1 | 6.73%
70 | COc1ccc2nc(N(CCN(C)C)C(=O)CCc3ccccc3)sc2c1 | -4.73%
71 | CCC12CN3CC(C)(CN(C1)C3c1ccc(OC)c(OC)c1)C2=O (stereo not shown) | 2.05%
72 | Cc1ccccc1-n1nc2c(c1NC(=O)C(C)Oc1ccccc1)CS(=O)(=O)C2 (stereo not shown) | -1.28%
73 | CC1(N2CCCCC2)C(=O)c2ccccc2C1=O | -1.84%
74 | c1ccc(-n2nnnc2CSc2nc3ccccc3s2)cc1 | 2.19%
75 | CN(C)C(=O)N1CCC(C(=O)NCc2cccs2)CC1 | -3.12%
76 | CC1SC2(C(=O)Nc3ccccc32)N(c2cccc(Cl)c2)C1=O (stereo not shown) | 2.01%
77 | Cc1cc(C)c(S(=O)(=O)NCC(=O)NC2CC2)c(C)c1 | -0.992%
78 | CCOc1ccccc1/C=C(\C#N)c1nc(-c2ccc(-c3ccccc3)cc2)cs1 | -2.32%

Row | SMILES | % Inhibition @ 10 uM
79 | COc1cc(C2SC(NC(C)=O)=NN2C(C)=O)ccc1OCc1ccccc1 (stereo not shown) | 26.2%
80 | O=C(Nc1ccccc1)OC[C@@H]1CCCN2CCCC[C@H]12 | -2.42%
81 | CCNC(=O)C1CCCN1S(=O)(=O)c1ccc(OC)cc1 (stereo not shown) | -4.64%
82 | CC(C)(C)OC(=O)N1CCc2[nH]ncc2C1 | -2.83%
83 | COCCNC(=O)CCc1c(C)nc2nc(-c3cc(OC)cc(OC)c3)nn2c1C | 1.26%
84 | O=C(NCCc1ccccc1)c1cccnc1Cl | 0.0504%
85 | O=C(c1ccccc1F)N(Cc1ccccc1)Cc1ccccc1 | 1.41%
86 | CNc1cc(-n2cccn2)nc(-c2ccccc2)n1 | 4.22%
87 | O=C1CC(Cc2ccc(Cl)cc2)C(=O)N1c1ccccn1 (stereo not shown) | 19.4%
88 | O=C(O)c1cccc(N2C(=O)c3ccc4c5c(ccc(c35)C2=O)CC4)c1 | 10.6%
89 | COc1ccccc1-n1cnc2cc(C(=O)NC3CCCCCC3)ccc21 | 8.71%
90 | Cc1cc(C)c2c(n1)nn1c(C)c(CCC(=O)NC(C)c3ccccc3)c(C)nc21 (stereo not shown) | 0.953%
91 | CN1c2ccccc2Sc2cc(N)ccc21 | -1.32%
92 | CO/C(O)=C1\C(C)=NC2=C(C(=O)CCC2)C1c1cccc(Br)c1 (stereo not shown) | -5.59%
93 | CCOC(=O)c1c(N)n(CCO)c2nc3ccccc3nc12 | 4.54%
94 | Cc1ccc(-c2nnc3[nH]c(=O)n(C)c(=O)c3n2)cc1 | -1.11%
95 | CCC[C@H](N[C@H](C(=O)NCC1CCCCC1)c1ccc(-c2ccc(S(C)(=O)=O)cc2)cc1)C(=O)NC1(C#N)CC1 | -8.26%
96 | CC(=O)Nc1ccc(S(=O)(=O)NCCc2ccccc2)cc1 | -14.2%
97 | Nc1c(C(=O)c2ccc(Br)cc2)sc2nc3c(cc12)CCC3 | -3.72%
98 | CCOC(=O)c1cc(CC)sc1/N=C/C1C(=O)c2ccccc2C1=O | -3.37%
99 | Cc1ccc(S(=O)(=O)N(CC(=O)Nc2ccc3c(c2)OCO3)Cc2ccc(Cl)cc2)cc1 | 0.142%
100 | O=C(/N=C/Nc1cccnc1)c1cccc(COCC(F)(F)F)c1 | 0.413%
101 | CC1CCN(C(=O)CN2C(=O)C(=O)c3ccccc32)CC1 | -3.41%
102 | c1ccc(C2CCC(N3CCN(c4ccccn4)CC3)CC2)cc1 (stereo not shown) | 1.57%
103 | Cc1nc2nc(C)c(CCC(=O)N3CCN(c4ccccn4)CC3)c(C)n2n1 | -8.27%
